GI50 and TGI data for 85 compounds are collected here from PubChem BioAssay (NCI).

In the assay the test system is NCI-H322M lung. Kind of assay: NCI-60 cell line screen, 48 h.

Where “and” joins values, the source holds several entries; their conditions need not be identical. Equal entries are not always repeated.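 Assay format: 96-well plates, 48-hour exposure. GI50 is the concentration that inhibits growth by half. The concentration for full growth arrest is given as TGI.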

Turning to `O=C(c1ccc(Cl)cc1Cl)N1CCN(C(=O)c2ccc(Cl)cc2Cl)C1=S`, the GI50 was 18.1 µM and the TGI is 41.4 µM. Consider `CCN(CC)CCC(=O)/C=C/c1ccc(Cl)c(Cl)c1`, for which the TGI is greater than 10 µM. The same measure, in the same setting: to `CC(C)(C)OC(=O)NC(CSCc1ccc(C(=O)c2ccccc2)cc1)C(=O)N1CCN(CCCCN2c3ccccc3Sc3cc(N=[N+]=[N-])ccc32)CC1` (stereo not drawn) belongs greater than 100 µM.

On to `COc1ccc(C2=C(c3ccc(OC)cc3)C(=O)OC2)cc1`, for which the GI50 was 3.69 µM and the TGI was greater than 51.7 µM. Consider `COc1ccc(C2CC(c3sc(Nc4ccc(C)cc4)nc3C)=NN2)cc1` (stereo not drawn), for which the TGI is 51.2 µM. Same read-out and setting: to `CC(C#N)(NO)C(C)(C#N)NO` (stereo not drawn) belongs greater than 100 µM; to `CC(=O)CC[N+](C)(C)C`, greater than 100 µM. The same measure, in the same setting: to `Cc1cn(S(=O)(=O)c2ccccc2)c2c(OCc3ccccc3)cc([N+](=O)[O-])cc12` belongs greater than 100 µM; to `CN(C)CCCNc1ccnc2c([N+](=O)[O-])cccc12`, 35.9 µM. On the same count and under the same terms, in the case of `Cn1c(=O)nc2n(-c3ccc(Br)cc3)c3ccccc3nc-2c1=O` it was 26 µM; in that of `O=NNc1ccc(-c2ccccc2)cn1`, greater than 88.6 µM; in that of `COc1ccc2[nH]c3c(C)c4c(c(C)c3c2c1)CN(C)C=C4`, 19.8 µM.

In turn, `CCCC(=O)OCC1OC(n2cc(F)c(=O)[nH]c2=O)CC1OC(=O)CCC` (stereo not drawn) yielded a TGI greater than 10 µM.

In the case of `COc1ccc2[nH]c3ccc4cc[n+](CCN5CCC(C6CCN(CC[n+]7ccc8ccc9[nH]c%10ccc(OC)cc%10c9c8c7)CC6)CC5)cc4c3c2c1`, the GI50 was 1.8 µM; the TGI was 50 µM and > 86.3 µM. Consider `CC(C)(C)C1=CC(=N/N=c2\scc(-c3ccccc3)n2Cc2ccccc2)C=C(C(C)(C)C)C1=O`, for which the TGI is greater than 100 µM.

`C=CC[P@]1(=O)O[C@H](c2ccccc2)C(C)N1C(C)C` (stereo partly drawn) returned a TGI greater than 100 µM.

Regarding `N=C1OC(CN2CCN(c3ccccc3)CC2)CN1C(=O)Nc1ccccc1` (stereo not drawn), the TGI was greater than 100 µM.

`C/C(Cc1ccc2c(c1)OCO2)=N\N=c1\sc2ccccc2n1C` showed a TGI greater than 100 µM. In turn, `O=C1c2ccccc2C(=O)c2c1ccc1conc21` displayed a TGI of 26 µM.

`CN1CCN(C2=C(Cl)C(=O)c3ccccc3C2=O)CC1`: the GI50 was 3.04 µM and the TGI was 8.64 µM. For `Cc1cccc(CNc2c3ccccc3nc3ccccc23)c1` the same measures were 2.1 µM and 6.11 µM. Regarding `O=c1c(NCc2ccccc2)c(C2(c3ccccc3F)SCCCS2)c1=O`, the TGI is greater than 100 µM. For `CCc1nc(N)nc(N)c1C#CC(C)c1ccc(-c2ccncc2)cc1Cl` (stereo not drawn), the GI50 was 0.0363 µM and 0.208 µM; the TGI is 6.53 µM and 16.5 µM. Consider `Nc1cc(OCC2CCCCC2)nc(N)n1`, for which the TGI is greater than 100 µM.

`COc1cc(/C=C/C(=O)c2c(C)n([O-])c3ccccc3[n+]2=O)cc(OC)c1OC`: the GI50 was 11.6 µM and the TGI was determined as 25.5 µM. For `CCCCC[C@@H]1CCCC2NC(CCCCCO[Si](c3ccccc3)(c3ccccc3)C(C)(C)C)CCC21` (stereo partly drawn), the TGI came to 28.7 µM. As for `CCCC(=O)Oc1ccc(/C(=C(\C)c2ccc(Cl)cc2)c2ccc(OCCN(CC)CC)cc2)cc1`, the GI50 is 3.17 µM and the TGI was determined as 12.3 µM. `O=C1c2ccccc2C(=O)N1c1ccc(Cc2ccc(N3C(=O)c4ccccc4C3=O)cc2)cc1`: the TGI is greater than 100 µM. In the case of `Cc1cc(NC(=O)NCCOc2ccc(N3C(N)=NC(N)=NC3(C)C)cc2Cl)ccc1S(=O)(=O)F`, the GI50 was 2.44 µM and the TGI was greater than 100 µM.

In turn, `O=C1/C(=C/c2cccc([N+](=O)[O-])c2)N=C(c2ccccc2)N1c1nc2ccc(Sc3ccccc3)cc2[nH]1` displayed a TGI greater than 100 µM.

As to `Nc1[nH]nc(Nc2ccccc2)c1-c1nc2ccccc2s1`, the GI50 was 2.2 µM and the TGI was 11.7 µM.

`CCOC(=O)NC(Nc1ccc(F)cc1F)(C(F)(F)F)C(F)(F)F`: the TGI is greater than 100 µM. On the same count and under the same terms, to `COc1ccc(-c2cc(-c3ccc(C)cc3)n(C3OC(COC(C)=O)C(OC(C)=O)C(OC(C)=O)C3OC(C)=O)c(=S)c2C#N)cc1` (stereo not drawn) belongs greater than 100 µM; to `COc1ccc2nc3cc(Cl)ccc3c(Sc3ccc(N)cc3)c2c1`, 31.7 µM; to `COCN1COCN(C)C1=O`, greater than 100 µM. The same measure, in the same setting: to `Cc1ccc([N+](=O)[O-])cc1S(=O)(=O)Nc1ccc(C2=NN(S(=O)(=O)c3cc([N+](=O)[O-])ccc3C)C(c3cccs3)C2)cc1` (stereo not drawn) belongs greater than 100 µM; to `CC(C)(C)c1cc(C2c3cc4c(cc3OC(O)(CO)C2C(=O)O)OCO4)cc(C(C)(C)C)c1O` (stereo not drawn) (tested in a mixture with another compound), 27.8 µM. Take `COc1cc2c(cc1OC)C(CCN)=NCC2`: the TGI is greater than 100 µM. As for `CCCCn1c(=O)[nH]c2c(N)ncnc21`, the TGI is greater than 100 µM. Still for that read-out and setting: to `CCC1(CC)C(=O)NC(=O)NC1=S` belongs greater than 100 µM. On the same count and under the same terms, to `CCC(C)C(Nc1c2ccccc2nc2c(C(=O)NCCN(C)C)cccc12)C(=O)O` (stereo not drawn) belongs 61.8 µM; to `O=CNC(Cc1cnc[nH]1)C(=O)O` (stereo not drawn), greater than 100 µM; to `O=C(O)CCC(O)=C1S(=O)(=O)OCCOS1(=O)=O`, greater than 100 µM.

`O=C(c1ccccc1)c1nc2c(Cl)ccc(Cl)c2cc1C(Br)Br`: the TGI was 2.4 µM. For `CNc1c2ccccc2nc2occ(Cl)c12`, the GI50 is 20.3 µM and the TGI stood at 74.9 µM. The compound `NCCCn1c(Cl)nc2ccccc21` gave a TGI greater than 100 µM. `COc1ccc(C2=Nn3c(nnc3-c3ccc(F)c(Cl)c3)SC2)cc1`: the GI50 was greater than 100 µM and the TGI is greater than 100 µM. In the case of `O=[N+]([O-])c1ccc2c(c1)nc1n2C(c2c(F)cccc2F)SC1` (stereo not drawn), the TGI is greater than 100 µM.

Compound `CC1(Cl)C(=O)NC(=O)N([C@H]2C[C@H](O)[C@@H](CO)O2)C1N=[N+]=[N-]` (stereo partly drawn) showed a TGI greater than 100 µM. Still for that read-out and setting: in the case of `Cc1ccc(C(=O)Nc2ccc(S(=O)(=O)O)c3cc(S(=O)(=O)O)cc(S(=O)(=O)O)c23)cc1NC(=O)c1cccc(NC(=O)Nc2cccc(C(=O)Nc3cc(C(=O)Nc4ccc(S(=O)(=O)O)c5cc(S(=O)(=O)O)cc(S(=O)(=O)O)c45)ccc3C)c2)c1` it was greater than 100 µM. The same measure, in the same setting: in the case of `Nc1cc(CO)cc(Nc2c3ccccc3nc3ccccc23)c1` it was 64.3 µM. With `COc1ccc(-n2cc(-c3cc(OC)c(OC)c(OC)c3)nc2SCc2cccc(C#N)c2)cc1OC`, the GI50 was greater than 100 µM and the TGI is greater than 100 µM. Regarding `COc1cc(/C=C2\C(=O)N(c3cccc(NC(C)=O)c3)C(c3ccccc3)S2(=O)=O)cc(OC)c1OC` (stereo not drawn), the TGI was greater than 100 µM.

Consider `CC(=O)OCC1OC(n2c(C)c(C)cc(C#N)c2=S)C(OC(C)=O)C(OC(C)=O)C1OC(C)=O` (stereo not drawn), for which the TGI is greater than 100 µM.

`O=C(COc1cc(=O)oc2ccccc12)c1ccccc1`: the TGI is greater than 100 µM. On the same count and under the same terms, to `NCC(=O)Nc1ccc(Cl)cc1C(=O)c1ccc[nH]1` belongs greater than 100 µM.

In turn, `CS(=O)(=O)OCCN(CCOS(C)(=O)=O)c1ccc(C=Nc2ccc(-c3csc(Cc4ccccc4)n3)cc2)c(Cl)c1` registered a TGI greater than 100 µM. The same measure, in the same setting: to `CC(=O)C1=C(C)N(c2ccccc2)C2(O)C3=C(C(=O)c4ccccc4C3=O)C(O)=CC12Cl` (stereo not drawn) belongs 25 µM; to `Cc1cc(NS(=O)(=O)c2ccc(NC(=O)c3ccc(Cl)c4c(Nc5ccc(S(=O)(=O)Nc6cc(C)on6)cc5)c5ccccc5nc34)cc2)no1`, 33.6 µM; to `COC(=O)[C@@]12CSC[C@]1(C(=O)OC)N[C@@H](c1ccccc1O)C2`, greater than 100 µM. With `CN(C)Cc1ccc(NC(=O)c2cncc(C#Cc3cnc(N)c4ncccc34)c2)cc1C(F)(F)F`, the GI50 is 1.71 µM and the TGI was 3.18 µM. Turning to `NC(CSC(c1ccccc1)(c1ccccc1)c1ccccc1)C(=O)O` (stereo not drawn), the GI50 is 1.39 µM and 0.674 µM; the TGI was 110 µM and > 100 µM.

Regarding `COc1ccc(-c2cc(=O)c3c(O)c(O)c(OC)cc3o2)cc1O`, the TGI was greater than 100 µM. Still for that read-out and setting: in the case of `CC(O)C(CO)NC(=O)C1CSSCC(NC(=O)C(N)Cc2ccccc2)C(=O)NC(Cc2ccccc2)C(=O)NC(Cc2c[nH]c3ccccc23)C(=O)NC(CCCCN)C(=O)NC(C(C)O)C(=O)N1` (stereo not drawn) it was greater than 100 µM. `Nc1c(C(=O)c2cccc(-c3cccnc3)c2)cnn1-c1ccc(F)cc1`: the GI50 is greater than 25 µM and the TGI is greater than 25 µM.

On to `COc1ccc(-c2cn(C)c3c2-n2cccc2C3=O)cc1O`, for which the GI50 is 4.03 µM and the TGI turned out to be 20.3 µM. Compound `C=CCCC(O)c1cc(C)c(O)c(C)c1` (stereo not drawn) displayed a TGI greater than 100 µM. Take `N#CC1=C(N)NC(=O)C(C#N)C12Nc1ccccc1S2` (stereo not drawn): the GI50 is greater than 100 µM and the TGI is greater than 100 µM.

In the case of `O=C(Cn1c2ccc(Br)cc2c2nc3ccccc3nc21)NCc1ccccc1`, the TGI was greater than 100 µM. Still for that read-out and setting: to `O=C(O)c1ccc2c(O)c(O)ccc2c1` belongs 64.3 µM; to `Nc1n[n+]([O-])c2ccc(Cl)cc2[n+]1[O-]`, 73.8 µM.

Turning to `CCN(Cc1ccc(Cl)c(Cl)c1)c1ccc2nc(N)nc(N)c2c1C`, the GI50 was less than 0.0264 µM and the TGI worked out at 2.27 µM. Regarding `N[C@H]1CCC[C@@H](O)C1O` (stereo partly drawn), the TGI is greater than 100 µM.

`CC(NCCN(C)C)C1CCC2C3CCc4cc(O)ccc4C3CCC12C` (stereo not drawn) registered a TGI of 13.9 µM. The same measure, in the same setting: to `O=C(NCCCN1CCN(CCCNC(=O)c2cccc3ccccc23)CC1)c1cccc2ccccc12` belongs greater than 100 µM; to `Cc1cc2ncn(CC(=O)O)c2cc1C`, greater than 100 µM. For `O=C(O)CCCN1C(=O)/C(=C/C(Cl)=C/c2ccccc2)SC1=S`, the GI50 is 2.78 µM and the TGI came out at 10.2 µM. In the case of `Cc1cc(C)c2c(=N)c3ccccc3n(CCCCCCCCn3c4ccccc4c(=N)c4c(C)cc(C)nc43)c2n1`, the TGI stood at 2.37 µM. `O=[N+]([O-])c1ccc(Sc2cccc[n+]2[O-])c2nonc12`: the GI50 is 15.5 µM and the TGI was determined as 94.4 µM.

Regarding `Nc1nnc(N)n1N`, the TGI is greater than 100 µM. On the same count and under the same terms, in the case of `CCOP(=O)(OCC)C(c1ccc(F)cc1)N(C(=O)NC(F)(F)F)c1ccc(F)cc1` (stereo not drawn) it was greater than 100 µM; in that of `O=C(CCCc1cccc2[nH]c3c(c12)CN(Cc1ccccc1)CC3)c1ccc(F)cc1`, greater than 100 µM.

On to `CNC(=O)[C@H](Cc1c[nH]c2ccccc12)NC(=O)[C@@H](CC(=O)NO)CC(C)C`, for which the GI50 was greater than 25 µM and the TGI is greater than 25 µM. Regarding `CN(C)S(=O)(=O)c1cccc(C(=O)Nc2nc(-c3ccc(F)c(F)c3)cs2)c1`, the GI50 was 26.6 µM and the TGI was greater than 100 µM. `O=C1C=C(NCCc2ccc(O)c([N+](=O)[O-])c2)C(=O)c2[nH]cnc21` registered a TGI of 63.1 µM.
